# Test results published in PubChem BioAssay AID1346428 (National Center for Advancing Translational Sciences (NCATS), 2018).
# The campaign covered roughly 48,000 compounds. About 1,200 (2.5%) were called active. Not shown: some 2% with an inconclusive outcome.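 How the source made its calls: active means activation of at least 60% and not above a set upper limit (about 1 call in 100 departs from these limits); inconclusive means activation of 40% to 60%, or above that upper limit; inactive means activation under 40%.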 The list shows a part of the results.
# Target: Probable G-protein coupled receptor 32 (Homo sapiens) (UniProt O75388)
# Test: qHTS for Agonists of Human Resolvin D1 Receptor DRV1; further: 0% is about no effect
# Conditions: CHO-K1 GPR32 beta-arrestin PathHunter luminescence, 90 min; at 76.9 µM; active compounds read high; zero percent set by DMSO-only wells
# Method in brief: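 Engineered CHO-K1 line co-expressing GPR32-ProLink and EA-beta-arrestin. Compound treatment lasted 90 min at 37 °C. Luminescence was recorded after 1 h with substrate at ambient temperature, relative to DMSO basal wells.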
# Chain of UniProt O75388 (O75388 whole entry, looked up): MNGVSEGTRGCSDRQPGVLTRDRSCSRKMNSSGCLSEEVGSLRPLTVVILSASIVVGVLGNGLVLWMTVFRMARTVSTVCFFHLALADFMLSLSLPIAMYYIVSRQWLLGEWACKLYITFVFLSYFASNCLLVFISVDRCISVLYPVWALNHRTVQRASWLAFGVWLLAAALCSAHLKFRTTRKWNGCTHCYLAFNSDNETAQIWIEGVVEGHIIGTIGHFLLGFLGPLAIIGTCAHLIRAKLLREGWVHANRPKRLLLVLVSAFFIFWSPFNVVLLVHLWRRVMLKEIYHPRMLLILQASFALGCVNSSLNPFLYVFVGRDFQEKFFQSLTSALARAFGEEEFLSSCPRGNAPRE
row,Compound,activation
1,COc1ccc(C2C=C(c3ccccc3)Nc3nc(NC(=O)c4cccc([N+](=O)[O-])c4)nn32)cc1 (configuration not stated),inactive: -18.2%
2,O=C1[C@@H]2[C@H]3CC[C@H](C3)[C@@H]2C(=O)N1CCCCN1CCN(c2ncccn2)CC1,inactive: 5.38%
3,COc1ccc(C(=O)Nc2ccc3oc(-c4cccnc4)nc3c2)cc1,inactive: 6.81%
4,Clc1cccc(N2CCN(c3nc4ccccc4n4nnnc34)CC2)c1,inactive: -14%
5,Cc1ccc(OCC(=O)Nc2cccc(-c3nc4ccccc4s3)c2)cc1,inactive: -15.8%
6,CCOC(=O)c1ccc(NC(=O)C2CCCN(c3ncnc4onc(-c5ccc(F)cc5)c34)C2)cc1 (configuration not stated),inactive: -13.6%
7,COc1cccc(CNC(=O)c2sc3nc(C)cc(C)c3c2-n2cccc2)c1OC,inactive: 3.7%
8,Cc1c(C(=O)NCc2ccccc2)sc2nc3n(c(=O)c12)CCCCC3,inactive: 19.6%
9,CCOc1ccc(NC(=O)C2CC(=O)NC(=Nc3ccc(Cl)c(Cl)c3)S2)cc1 (configuration not stated),inactive: -25.2%
10,COC(=O)c1sccc1S(=O)(=O)N1CCN(c2cc(Cl)ccc2C)CC1,inactive: -24.5%
11,COC(=O)C(Cc1c[nH]c2ccccc12)NC(=O)COc1cccc(C)c1 (configuration not stated),inactive: -10.2%
12,Cc1ccc(Cl)cc1N1CCN(C(=O)c2ccc(NC(=O)c3nsc4ccccc34)cc2)CC1,inactive: -9.51%
13,CCOC(=O)COc1ccc(CC)cc1C(=O)c1ccn2nc(-c3ccccc3)cc2n1,inactive: -12.8%
14,Cc1ccc(NC(=O)c2oc3ccc(S(=O)(=O)N4CCC5(CC4)OCCO5)cc3c2C)cc1C,inactive: -3.09%
15,COCCNC(=O)CCn1c(=O)c2cc(OC)c(OC)cc2n(CC(=O)Nc2ccc(Cl)cc2F)c1=O,inactive: -7.45%
16,Cc1ccc(-c2n[nH]c3c2C(c2ccc(C(C)(C)C)cc2)NC3=O)cc1 (configuration not stated),inactive: -5.01%
17,Cc1nn(S(=O)(=O)c2ccc(C(C)(C)C)cc2)c(C)c1S(=O)(=O)N1CCCCCC1,inactive: 0.633%
18,Cc1ccc(NC(=O)Cn2nnc3sc(-c4ccccc4)cc3c2=O)cc1Cl,inactive: -2.07%
19,Cc1ccc2c(c1)N(C(=O)NCc1ccccc1)CCO2,inactive: -14.4%
20,CCC(C)NC(=O)c1ccc2c(=O)n3c(nc2c1)CCCCC3 (configuration not stated),inactive: 0.446%
21,COc1ccc(C)cc1NS(=O)(=O)c1ccc2c(c1)n(C)c(=O)n2C,inactive: 24.7%

row,Compound,activation
1,CCC(CC)c1nn2c(=O)cc(COc3ccc(NC(=O)c4cccc(Cl)c4)cc3)nc2s1,inactive: -1.73%
2,COc1ccc(C(=O)NCC2(N3CCN(C)CC3)CCCCC2)cc1,inactive: -13.6%
3,CCn1c(=O)c(=O)n(CC)c2cc(N3CCCCC3)c(NC(=O)c3cccc(F)c3)cc21,inactive: -1.79%
4,Cc1nnc2c(Nc3cccc(O)c3)nc3ccccc3n12,inactive: 2.55%
5,CC(=O)Nc1ccc(C)cc1-c1nc2ccccc2n(CC(=O)Nc2cc(Cl)ccc2C)c1=O,inactive: -9.79%
6,CCCN1Cc2cccc(C(=O)Nc3cc(C)cc(C)c3)c2C1=O,inactive: -10.8%
7,O=C1c2cccc3c2[C@H](CCC3)CN1[C@@H]1CN2CCC1CC2,inactive: 16%
8,COc1ccc(Cl)cc1NC(=O)CCC(=O)N1CCOc2ccccc21,inactive: -6.31%
9,COc1ccc(NC(=O)Cn2c(=O)n(Cc3ccc(C(=O)NCc4ccccc4Cl)cc3)c(=O)c3ccccc32)cc1OC,inactive: 0.0093%
10,COc1ccc(NC(=O)CSc2nc(-c3ccco3)cc(C(F)(F)F)n2)cc1,active: 94.6%
11,COc1cccc(CNS(=O)(=O)c2cc3c(cc2C)n(C)c(=O)c(=O)n3C)c1,inactive: 1.75%
12,Cc1noc(-c2ccc(NCc3ccccc3)c([N+](=O)[O-])c2)n1,inactive: -9.96%
13,COc1ccc(NC(=O)Cn2c(=O)n(CCc3ccccc3)c(=O)c3ccccc32)cc1,inactive: 14.4%
14,COc1ccc2nc(NC(=O)c3cc(=O)c4ccccc4o3)sc2c1,inactive: -17.1%
15,Cc1ccccc1OCC(=O)Nc1cc(-c2cccc(Br)c2)nn1-c1ccccc1,inactive: -5.87%
16,O=C(NCc1nc2cccnc2n1Cc1ccc(F)cc1)c1ccccc1C(F)(F)F,inactive: -18.9%
17,O=C(c1cccc(Cl)c1)N1CCN(CCc2ccccn2)CC1,inactive: -0.922%
18,CCCCNC(=O)c1c(C)oc2ncn(CC(C)C)c(=O)c12,inactive: -10.1%
19,CCOc1ccc(NC(=O)Cn2nc(-c3ccncc3)ccc2=O)cc1,inactive: -16.3%
20,COc1ccc(C(=O)N(Cc2ccco2)Cc2ccco2)cc1,inactive: -13%
21,COc1ccccc1CNCCSc1nnnn1C,inactive: 23.7%

row,Compound,activation
1,Nc1c(-c2nc(-c3ccncc3)no2)nnn1CC(=O)Nc1ccccc1,inactive: -7.27%
2,COC(=O)c1c(N)n(-c2cc(Cl)cc(Cl)c2)c2nc3ccccc3nc12,inactive: -23.7%
3,CCC(=O)N1CCc2cc(Br)cc(S(=O)(=O)N3CCCC(C(=O)NCc4ccccc4)C3)c21 (configuration not stated),inactive: -20.8%
4,Cc1ccccc1CN1C(=O)c2ccccc2Sc2ccc(C(=O)NCc3cccs3)cc21,inactive: -16.9%
5,Cc1noc(/C=C/c2ccccc2F)c1S(=O)(=O)N1CCC(C(=O)N(C)Cc2ccco2)CC1,inactive: -21.8%
6,COc1ccccc1N1CCN(S(=O)(=O)c2c(C)sc3ncn(CC(=O)Nc4ccccc4F)c(=O)c23)CC1,inactive: 1.81%
7,COc1ccc(S(=O)(=O)NCC(c2ccco2)N2CCOCC2)cc1C (configuration not stated),inactive: -14.6%
8,O=C(Cn1c(=O)nc(-c2ccccc2)c2cc(Cl)ccc21)NCCc1ccc(Cl)cc1,inactive: -12.1%
9,CCOc1ccc(/C=C/c2nc3ccccc3n2S(=O)(=O)c2ccc(Br)cc2)cc1,inactive: 24.3%
10,COc1cccc(NC(=O)Cn2c(=O)n(-c3ccc(Cl)cc3)c(=O)c3sc4ccccc4c32)c1,inactive: -11.9%
11,CCN1CCN(c2ncc3c(n2)CCN(Cc2ccc(Br)s2)C3)CC1,inactive: -32.6%
12,CCc1ccc(NCc2cccn2-c2nnc(N3CCCCCC3)s2)cc1,inactive: -24.1%
13,CCOc1ccc(NC(=O)CSc2nnc(CNC(=O)c3c(F)cccc3Cl)o2)cc1,inactive: -7.43%
14,COc1ccc(OC)c(-c2cc(C(=O)Nc3cnn(Cc4ccc(Cl)cc4Cl)c3)no2)c1,active: 90.6%
15,CCc1ccc(-c2[nH]nc3nc(-c4ccc(OC)cc4)cc(C(=O)NCCc4ccc(OC)c(OC)c4)c23)cc1,inactive: -8.09%
16,COc1ccc(C(=O)NCCc2sc(-c3ccc(Cl)cc3)nc2C)c(OC)c1,inactive: 13%
17,Cc1ccc(NC(=O)Cn2c(=O)n(-c3ccccc3)c(=O)c3c4c(sc32)CCCC4)cc1,inactive: -1.44%
18,COc1ccc(C)cc1NC(=O)NCc1ccc2c(c1)CCN2C(=O)c1ccccc1,inactive: -24.3%
19,C=Cc1ccc(CN2C(=O)N(c3ccc(CC)cc3)S(=O)(=O)c3ccccc32)cc1,inactive: -7.19%
20,COc1ccc(C)cc1NC(=O)CSc1nc(=O)n(Cc2ccncc2)c2c1CCC2,inactive: 13.1%
21,COc1ccc(C)cc1Nc1nc2cc(Cl)c(Cl)cc2nc1-n1nc(C)cc1C,inactive: 15.7%

row,Compound,activation
1,CCc1cccc(N2C(=O)N(CC(=O)NCc3cccc(OC)c3OC)c3ccccc3S2(=O)=O)c1,inactive: -24.4%
2,CCCN1C(=O)C(Cc2nc3ccccc3c(=O)n2-c2ccccc2)c2cc(C)ccc21 (configuration not stated),inactive: -9.69%
3,COc1cc(NC(=O)CN2C(=O)COc3ccc(S(=O)(=O)N4CCCCC4)cc32)cc(OC)c1,inactive: -23.6%
4,Cc1ccc(C)c(CN2C(=O)c3ccccc3S(=O)(=O)c3ccc(C(=O)N4CCN(c5ccccn5)CC4)cc32)c1,inactive: -60%
5,CCOC(=O)COc1ccc(C)cc1C(=O)c1ccn2nc(-c3ccc(C)cc3)cc2n1,inactive: -7.3%
6,COC(=O)c1ccc(OCC2c3cc(OC)c(OC)cc3CCN2C(=O)C(C)C)cc1 (configuration not stated),inactive: -3.42%
7,COCCNC(=O)c1ccc(CSc2nc3ccncc3n2Cc2ccccc2)cc1,inactive: 26.8%
8,O=C(CSc1ncc2c(n1)-c1ccccc1N(Cc1ccccc1)S2(=O)=O)Nc1ccccc1,inactive: -7.06%
9,COc1cccc(NC(=O)CSc2nc3ccccc3n2C)c1,inactive: 2.82%
10,CCC(=O)N1CCc2cc(S(=O)(=O)CCC(=O)N3CCN(c4cc(C)ccc4C)CC3)ccc21,inactive: -3.2%
11,COc1ccc(OC)c(NC(=O)CN(C)S(=O)(=O)c2ccc3[nH]c4c(c3c2)CCCC4)c1,inactive: -0.456%
12,CCOc1ccc(NC(=O)c2c(NC(=O)Cc3ccccc3)sc3c2CCC(C)C3)cc1 (configuration not stated),inactive: -11.2%
13,COCCCNC(=O)C1CCN(Cc2nc(-c3ccc(OC)c(OC)c3)oc2C)CC1,inactive: -8.06%
14,Cc1ccc(NC(=O)Cn2c(=O)n(Cc3ccco3)c(=O)c3ccc(C(=O)NC4CCCC4)cc32)c(C)c1,inactive: -12.2%
15,COc1ccc(Cn2nnc(C(=O)Nc3cc(OC)ccc3OC)c2N)cc1,inactive: -1.56%
16,COc1ccc(OC)c(CCNC(=O)c2c(C)nn(-c3ccc(F)cc3)c2-n2cccc2)c1,inactive: 0.888%
17,CCOc1ccc(C(=O)NCC(c2ccc3c(c2)OCO3)N2CCN(c3ccccc3F)CC2)cc1 (configuration not stated),inactive: -25.6%
18,Cc1nnc(N2CCC(C(=O)NC3CCCCC3)CC2)c2nn(-c3ccc(Cl)cc3)c(C)c12,inactive: 7.84%
19,CCOc1ccc(NC(=O)c2c(NCc3ccc(C)o3)sc3c2CCC(C)C3)cc1 (configuration not stated),inactive: -11.3%
